Measurements as given in PubChem BioAssay AID504339 (National Center for Advancing Translational Sciences (NCATS), 2011).
Among all 390,000 compounds or so, about 17,000 (4.4%) were called active. Inconclusive means that the source gave no clear call. Such entries were picked first, then a sample of the others. The call rests on the fitted dose curve; in most records, active means well fitted inhibition curve with a large enough effect; inconclusive means small, poorly fitted or top-dose-only effect; inactive means no such curve, though single readings can be large or run the other way. Potencies beside an inconclusive call are fits to weak or partial responses and may not hold up.

Each compound was assayed against Lysine-specific demethylase 4A (Homo sapiens) (UniProt O75164) (assay: qHTS Assay for Inhibitors of JMJD2A-Tudor Domain). Conditions: AlphaScreen JMJD2A-Tudor / H3K4me3 peptide binding; activity change, negative = inhibition: at 114 µM (top of the series).
Sequence of UniProt O75164 (O75164 whole entry, looked up, the tested form may be a part): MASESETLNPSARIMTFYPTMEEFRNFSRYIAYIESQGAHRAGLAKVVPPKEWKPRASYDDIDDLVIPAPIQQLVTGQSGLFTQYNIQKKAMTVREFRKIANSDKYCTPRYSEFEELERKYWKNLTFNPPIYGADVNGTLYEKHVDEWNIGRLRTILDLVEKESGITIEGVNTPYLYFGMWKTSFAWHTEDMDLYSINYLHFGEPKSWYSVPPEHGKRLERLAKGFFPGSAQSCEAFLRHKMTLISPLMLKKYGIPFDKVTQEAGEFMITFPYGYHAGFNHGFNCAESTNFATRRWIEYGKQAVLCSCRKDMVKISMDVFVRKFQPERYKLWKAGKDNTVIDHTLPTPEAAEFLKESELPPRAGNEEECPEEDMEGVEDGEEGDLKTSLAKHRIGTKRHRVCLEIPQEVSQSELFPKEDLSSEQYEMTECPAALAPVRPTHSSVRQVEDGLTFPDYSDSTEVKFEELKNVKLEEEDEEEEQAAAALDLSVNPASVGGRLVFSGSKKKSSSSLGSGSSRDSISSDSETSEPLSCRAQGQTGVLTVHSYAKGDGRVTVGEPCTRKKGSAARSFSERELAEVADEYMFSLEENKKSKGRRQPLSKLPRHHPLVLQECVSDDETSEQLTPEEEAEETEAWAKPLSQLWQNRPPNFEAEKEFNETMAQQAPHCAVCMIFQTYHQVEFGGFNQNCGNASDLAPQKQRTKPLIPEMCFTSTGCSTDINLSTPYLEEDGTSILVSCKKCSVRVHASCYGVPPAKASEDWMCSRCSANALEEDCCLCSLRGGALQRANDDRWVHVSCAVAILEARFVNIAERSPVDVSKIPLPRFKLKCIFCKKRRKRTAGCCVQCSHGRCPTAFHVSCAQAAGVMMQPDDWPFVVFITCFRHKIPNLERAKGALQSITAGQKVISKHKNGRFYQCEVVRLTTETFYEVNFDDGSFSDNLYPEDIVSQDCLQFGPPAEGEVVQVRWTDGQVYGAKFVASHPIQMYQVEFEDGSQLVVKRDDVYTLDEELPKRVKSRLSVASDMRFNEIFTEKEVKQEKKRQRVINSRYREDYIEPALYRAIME
Further: nearly all actives have a fitted effect of over 50% in size.
On the % scale 0 is the no-effect control and ±100 the full control effect; potency means the concentration at half of the fitted maximal effect; tags describe the fitted curve by direction and shape.

| SMILES | Potency | activity change, negative = inhibition |
| --- | --- | --- |
| COc1ccc(-c2sc(N)nc2-c2ccccc2)cc1 | inconclusive: 56.2 µM [inhibitor, partial curve] | – |
| COc1ccc(NC(=O)CSc2nc(-c3cccs3)cc(C(F)(F)F)n2)c(OC)c1 | – | inactive: -10.7% |
| O=C(NC1CCCCC1)c1ccc(CSc2nc3ccncc3n2Cc2ccccc2F)cc1 | – | inactive: -20.4% |
| CC1CCN(c2ccc(-c3nc(-c4ccccc4)no3)cc2[N+](=O)[O-])CC1 | inconclusive: 31.6 µM [inhibitor, partial curve] | – |
| CC(=O)c1ccc(S(=O)(=O)NCCC(=O)NC2CCN(Cc3ccccc3)CC2)cc1 | active: 4.47 µM | – |
| O=[N+]([O-])c1ccc(SCc2c(F)cccc2Cl)nc1 | active: 56.2 µM | – |
| Cn1c(=O)c2c([nH]c(=S)n2Cc2ccc(Cl)cc2)n(C)c1=O | active: 5.62 µM | – |
| O=C(CSc1nnc(CNc2ccc(Cl)cc2)n1Cc1ccccc1)NCc1ccco1 | inconclusive: 56.2 µM [inhibitor, partial curve] | – |
| COc1ccc(-n2c(SCC(=O)Nc3nccs3)nnc2-c2ccoc2C)cc1 | inconclusive: 79.4 µM [inhibitor, partial curve] | – |
| C/C(CC(=O)Nc1ccc(N(C)C)cc1)=N\NC(=O)c1ccc([N+](=O)[O-])cc1 | inconclusive: 50.1 µM [inhibitor, partial curve] | – |
| CC(=NC1CC1)c1c(-c2ccccc2)[nH]n(-c2nc3ccccc3s2)c1=O | inconclusive: 39.8 µM [inhibitor, partial curve] | – |
| COCCCNCCCCOc1ccc(OCc2ccccc2)cc1 | active: 20 µM | – |
| CCCCN(CC)C(=O)C1CCCN(c2ncnc3c2nc2n3CCCCC2)C1 (stereo not given) | – | inactive: -12.9% |
| COc1cc(C(C(=O)NC2CCCCC2)N(C(=O)Cc2c[nH]c3ccccc23)c2ccc(C)cc2)cc(OC)c1OC (stereo not given) | inconclusive: 31.6 µM [inhibitor, partial curve] | – |
| O=C(COC(=O)c1cc([N+](=O)[O-])ccc1N1CCCC1)Nc1ccccc1OC(F)F | inconclusive: 39.8 µM [inhibitor, partial curve] | – |
| CCOC(=O)c1ccc(NC(=O)c2ccc(CN3C(=O)CCn4nc(C)cc43)cc2)cc1 | – | inactive: -14.1% |
| Cc1ccccc1NC(=O)CSc1ccsc1[N+](=O)[O-] | active: 25.1 µM | – |
| O=C(Nc1ccc2c(c1)OCO2)c1ccc(CN2CCOCC2)cc1 | inconclusive: 79.4 µM [inhibitor, single point] | – |
| CCS(=O)(=O)C1=NSC2=NC(=O)/C(=C\c3ccc(OC(=O)c4ccco4)cc3)C(=N)N21 | – | inactive: -18.8% |
| O=C(Oc1c(CN2CCOCC2)cc(Cl)c2cccnc12)c1ccc(F)cc1 | active: 22.4 µM | – |
